Laboratory results taken from a collection of fitness landscapes (doi:10.1016/j.celrep.2020.107928).
In all, about 81,000 sequences were measured (“one-hybrid fitness for binding parS DNA”: median about -0.17, highest 2% from about 0.51 on). The list shows a part of the results.

B1: Caulobacter ParB omega fusion; a variant is named by its letters at X, in order, B8GW30 (parent)
chain: MESVVVGEPGMSEGRRGLGRGLSALLGEVDAAPAQAPGEQLGGSREAPIEILQRNPDQPRRTFREEDLEDLSNSIREKGVLQPILVRPSPDTAGEYQIVAGERAWRAAQRAGLKTVPIMVRELDDLAVLEIGIIENVQRADLNVLEEALSYKVLMEKFERTQENIAQTIGKSXSHVANXMRLLXLPDEVQSYLVSGELTAXHARAIAAAADPVALAKQIIEGGLSVRETEALARKAPNLSAGKSKGGRPPRVKDTDTQALESDLSSVLGLDVSIDHRGSTGTLTITYATLEQLDDLCNRLTRGI

Variants of: B1
Experiment: one-hybrid fitness for binding parS DNA (scaled: cognate 1, non-cognate 0); higher = stronger binding
Conditions: with parS DNA site
Procedure, shortened: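 Values were rescaled so that cognate is 1 and non-cognate is 0. Each is a fitness, the log change in a variant's read ratio to wild type from Illumina reads of plasmids before and after selection, with three replicate libraries pooled and variants under 10 reads dropped. Selection of the Caulobacter ParB libraries, four specificity codons randomised, used E. coli USO with a HIS3 reporter, site 19 bp from the promoter, on M9-minus-histidine with 0.1 mM IPTG and 5 mM 3-AT for 48 hours at 37°C.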

Row | Variant | one-hybrid fitness for binding parS DNA
1 | TRAF | ≤ 0.2
2 | KTPY | ≤ 0.2
3 | YGLL | ≤ 0.2
4 | VLLD | ≤ 0.2
5 | HFFR | ≤ 0.2
6 | TVCS | ≤ 0.2
7 | YVQM | ≤ 0.2
8 | HPTG | ≤ 0.2
9 | RSKE | ≤ 0.2
10 | TAYF | ≤ 0.2
11 | RTWG | 1.03
12 | GSRM | ≤ 0.2
13 | PLYW | ≤ 0.2
14 | DMVR | ≤ 0.2
15 | RTCF | 0.252
16 | RSHG | 1
17 | TAEG | ≤ 0.2
18 | VKQC | ≤ 0.2
19 | EMWS | ≤ 0.2
20 | VRDC | ≤ 0.2
21 | WPPP | ≤ 0.2
22 | NMMT | ≤ 0.2
23 | FWHR | ≤ 0.2
24 | NPCI | ≤ 0.2
25 | VRYS | ≤ 0.2
26 | RVLD | 0.245

Row | Variant | one-hybrid fitness for binding parS DNA
27 | DLII | ≤ 0.2
28 | SVWD | ≤ 0.2
29 | LTPI | ≤ 0.2
30 | KTKQ | ≤ 0.2
31 | FCIG | ≤ 0.2
32 | HWSR | ≤ 0.2
33 | MPTG | ≤ 0.2
34 | DIRN | ≤ 0.2
35 | QNPK | ≤ 0.2
36 | LILK | ≤ 0.2
37 | NPIS | ≤ 0.2
38 | WIMG | ≤ 0.2
39 | LTFA | ≤ 0.2
40 | TSGY | ≤ 0.2
41 | FHKY | ≤ 0.2
42 | NITG | ≤ 0.2
43 | ELMG | ≤ 0.2
44 | ITWM | ≤ 0.2
45 | RRSA | 0.693
46 | CYRT | ≤ 0.2
47 | GTHH | ≤ 0.2
48 | GWSM | ≤ 0.2
49 | DTWE | ≤ 0.2
50 | CNCN | ≤ 0.2
51 | LPRY | ≤ 0.2
52 | KNLW | ≤ 0.2

Row | Variant | one-hybrid fitness for binding parS DNA
53 | ICAS | ≤ 0.2
54 | ETDT | ≤ 0.2
55 | CPHS | ≤ 0.2
56 | ADSG | ≤ 0.2
57 | QYPF | ≤ 0.2
58 | GRRE | ≤ 0.2
59 | NAWL | ≤ 0.2
60 | FSMI | ≤ 0.2
61 | TQSR | ≤ 0.2
62 | KLGG | ≤ 0.2
63 | GFGL | ≤ 0.2
64 | VGSS | ≤ 0.2
65 | WSEL | ≤ 0.2
66 | LPKL | ≤ 0.2
67 | MDAW | ≤ 0.2
68 | SYHE | ≤ 0.2
69 | TLNY | ≤ 0.2
70 | PRSI | ≤ 0.2
71 | REVQ | ≤ 0.2
72 | LLHI | ≤ 0.2
73 | WDDR | ≤ 0.2
74 | CHHE | ≤ 0.2
75 | KKPM | ≤ 0.2
76 | RHKW | 0.205
77 | DDVR | ≤ 0.2
78 | DDRS | ≤ 0.2

Row | Variant | one-hybrid fitness for binding parS DNA
79 | YAAI | ≤ 0.2
80 | EIAP | ≤ 0.2
81 | CSHM | ≤ 0.2
82 | LTQK | ≤ 0.2
83 | RWEM | ≤ 0.2
84 | PATE | ≤ 0.2
85 | ARHL | ≤ 0.2
86 | NNPW | ≤ 0.2
87 | NPGG | ≤ 0.2
88 | RMNH | 0.287
89 | CVAA | ≤ 0.2
90 | WYCT | ≤ 0.2
91 | VDWR | ≤ 0.2
92 | RQFE | ≤ 0.2
93 | NAKS | ≤ 0.2
94 | LITD | ≤ 0.2
95 | FISS | ≤ 0.2
96 | VCHS | ≤ 0.2
97 | GPHE | ≤ 0.2
98 | QTIG | ≤ 0.2
99 | THTR | ≤ 0.2
100 | WHRG | ≤ 0.2
101 | SVND | ≤ 0.2
102 | QHKN | ≤ 0.2
103 | VFKR | ≤ 0.2
104 | RWMH | ≤ 0.2

Row | Variant | one-hybrid fitness for binding parS DNA
105 | FGHM | ≤ 0.2
106 | CHYG | ≤ 0.2
107 | CLDK | ≤ 0.2
108 | ELPG | ≤ 0.2
109 | CHRS | ≤ 0.2
110 | SLRI | ≤ 0.2
111 | GTWV | ≤ 0.2
112 | QTAG | ≤ 0.2
113 | FKYC | ≤ 0.2
114 | WRPG | ≤ 0.2
115 | TRTS | ≤ 0.2
116 | HPNF | ≤ 0.2
117 | NLNS | ≤ 0.2
118 | YTSG | ≤ 0.2
119 | KPEY | ≤ 0.2
120 | RKWT | 0.759
121 | HRNW | ≤ 0.2
122 | TNIS | ≤ 0.2
123 | PNLI | ≤ 0.2
124 | GRNC | ≤ 0.2
125 | IMIS | ≤ 0.2
126 | WQAS | ≤ 0.2
127 | PKIN | ≤ 0.2
128 | TAKR | ≤ 0.2
129 | CYMG | ≤ 0.2
130 | AYLM | ≤ 0.2

Row | Variant | one-hybrid fitness for binding parS DNA
131 | ARSD | ≤ 0.2
132 | RVIR | ≤ 0.2
133 | TGAE | ≤ 0.2
134 | GRQN | ≤ 0.2
135 | IHPF | ≤ 0.2
136 | IKQF | ≤ 0.2
137 | HDTR | ≤ 0.2
138 | QIVA | ≤ 0.2
139 | RSAP | ≤ 0.2
140 | AWLE | ≤ 0.2
141 | HLLC | ≤ 0.2
142 | PNTW | ≤ 0.2
143 | PYPA | ≤ 0.2
144 | RHYR | ≤ 0.2
145 | IRSK | ≤ 0.2
146 | DKTH | ≤ 0.2
147 | SGPA | ≤ 0.2
148 | PSMT | ≤ 0.2
149 | AISS | ≤ 0.2
150 | KTLT | ≤ 0.2
151 | WIAA | ≤ 0.2
152 | KTHM | ≤ 0.2
153 | LQCT | ≤ 0.2
